Source: the RNAGym collection of RNA variant scans (doi:10.1093/nar/gkz1192)
The source gives no read counts; variants with many changes may rest on few reads.

B1: CPEB3 Ribozyme (parent)
chain: UAACAGGGGGCCACAGCAGAAGCGUUCACGUCGCAGCCCCUGUCAGAUUCUGGUGAAUCUGCGAAUUCUGCUGUAUAUCUC

Variants of: B1
Experiment: self-cleavage, relative activity (ratio to wild type); higher = more cleavage; in vitro, sequencing
Outline: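 Libraries of CPEB3 self-cleaving ribozyme mutants came from rounds of error-prone PCR and carried barcodes, which DNA sequencing matched to variants. In vitro transcription used T7 RNA polymerase at 37°C for 5 hours, with a further 15 min in DNase I before EDTA stopped the reaction; the ribozymes cleaved during both steps. The RNA was reverse transcribed with template switching and sequenced on Illumina. Relative activity is the cleaved/total read fraction of a variant divided by that of the unmutated ribozyme, averaged over three batches with at least 5 reads.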

Variant | self-cleavage
C14U U26A A35G | 1.29
C14U U51A U60C C62U U78C | 0.42
C14U A20U U26C A57G U67C | 0.06
C14U A20G A35G U48A C62U A65G | 0.08
C14U C62G A65U | 0.31
A13U U41C U54C | 1.19
A13U U49A U58C | 0.19
C14A A45G A47U U60C G63C U69C | 0.02
C14A U25C A28G U74C U80A | 0.15
C14U A20G U26C C38U | 0.05
C14U C34G A56G A65G | 0.21
A13U U58G A77U | 0.39
A15C A20G A28U U48C U49C U76A | 0.06
A13U U54A A75G | 1.25
C14U A15U A20G U25C A28U | 0.22
A15C A20G C23U A56G A57G A65G | 0.09
C14A A20G A35G A45G U51C G63C U69C | 0.26
C14U U72A C79A | 0.88
C14A U25A U43C U60A | 0.12
C14U A57G A77G | 1.1
A13U U43A U69C U72C U76C | 0.4
C14U C23A U26C U51C | 0.08
A13U U41A U66C U76G | 0.1
A13U U54C U72C U74C U80C | 1.22

Variant | self-cleavage
C14A U25C A64U C68A | 0.16
C14G U41A U43G | 0.07
C14U A20G A65G U66C | 0.14
C14U A15U A18U A20G U26A A56G | 0.09
A13U U49C U54C A64U | 0.11
A13U U58G U67C | 0.36
C14U A28U U49C U67G U72A | 0.08
C14A A18C A64G A77G | 0.16
C14U G46U U76A A77G | 0.26
C14U U66A U69C | 0.24
A15C A21C A45G | 0.17
C14U A56G U66C | 0.3
C14A U60C U67C U72C | 0.16
C14U C17U A56G | 0.63
C14U A18U U26A U76C | 0.24
C14G A18G U60C | 0.53
C14A A15U A21G C44A A56G U66C C71U | 0.05
C14A U41C U80A | 1.19
C14U U26C U51C A65G | 0.23
A15C A20G C37U U67C C68A A75G | 0.09
C14A U31A U49A U74C A75U | 0.69
C14G A21G U69G U76A | 0.29
A13U U48C C71A | 0.11
C14A U43C U60A U69A | 0.23

Variant | self-cleavage
C14G A45U A56U | 0.19
A13U U54C U67C | 0.25
C14U A20G U41G U49C A65U U74A | 0.14
A13U U58C U76C | 0.78
C14A A20C G24U U26A U31C U41C A64G | 0.05
C14U U49C U69A U74C | 0.36
C14G C40G U74C | 0.29
C14U C32A A35U | 0.11
C14A C17U U49C G53U A57G A64C | 0.1
C14U A20G U26C U58A U69C | 0.14
C14U U51A U78A | 1.03
C14G A35G U43G A65G | 0.18
C14A C23A U43A U48C A65G | 0.09
C14U A28U U43A | 1.09
C14G A15U U26C | 0.29
C14U A20G C68A G70C | 0.19
C14U G19U U76C U78A | 0.07
A15C A18U U66C | 0.12
A15C A18G U41A U48C U60C | 0.35
C14U G19A A21G | 0.4
A13U U51C U80C | 1.26
C14U G24A U67G U78C | 0.12
A13U U43G A47G | 0.22
C14A A35U A56G A64U U78C | 0.11

Variant | self-cleavage
A13U U51C A64G | 1.14
A15C A18G C29U U48G | 0.25
A13U U66C U80C | 0.53
C14A A18U A45G | 0.33
C14G A56U U69A | 0.21
C14G A21G A45U | 0.21
C14A G63A U72C | 1.08
C14U A28U A77G | 1.05
C14A A20C C44A | 0.43
C14U A45G U66C A77U | 0.54
A15C A21G A56G | 0.35
A15C A18G A28U U51G U54C A56G | 0
C14U U26A U41A | 0.09
A13U U49C A64G A75G | 0.19
A13U U41C A47U U69C U80A | 0.13
C14U A20G U69A | 0.51
A13U U49C A64U | 0.11
C14U C40G A65G U72C A77U | 0.08
C14G A21U A35G | 1.18
C14U A15U A56G | 0.75
A13U U41C U43C A47U U51C U66C | 0.14
A13U U58A G73U U80C | 1.1
C14G U41C U58A A65G C79A | 0.24
C14U U43C U72C A77G | 0.92

Variant | self-cleavage
C14U A18G A47U A56G | 0.36
A13U U41C A56G | 1.02
C14U U41C U60C G63U A75G | 0.71
A13U U48C U51C U74C | 1
C14U G33A U48C | 0.16
A13U U67C U72C | 0.23
C14A A45G A64G U69A U80C | 0.21
A15C A18G A64G | 0.38
C14U A35G G70U | 1.15
A15C A18G C34U U41C U43A U67C U69A | 0.04
A13U U41C A65G | 0.81
C14A U26C A57G | 0.68
A15C A20G U25C A57G | 0.49
A13U U58C U78C | 0.44
A13U U48C U54C | 0.67
A13U U41C A45G A47G U72C U80C | 0.8
A13U U43C U58A | 0.13
A13U U58C U74A | 0.6
C14U G19C A64G U78A | 0.2
C14U U41A U51A | 0.36
C14G A21G G24C U26C U43C | 0.07
C14A U25C C27A | 0.15
A13U U43A U51C U72C U76C | 0.76
C14G U43C A47G A64U | 0.12

Variant | self-cleavage
C14U C17A A18U | 0.49
A13U U43C A64G | 0.34
A15C A20G A45U | 0.39
C14A U41C A57G U66A | 0.57
C14U U60A C79G | 1.04
C14U U26C G42A U78C | 0.15
C14U U54A U78C U80C | 1.13
C14A U25C U48A A57G | 0.15
A13U U41A U54C A64G U78C | 0.14
A13U U43A C59G U66C | 0.18
C14A C32U C50U U54C A57C | 0.06
C14U U41A U78C | 0.16
A15C A20G U25A U49C U80C | 0.44
C14A U26A A64C U69A | 0.29
C14A A28G A35U A57G U72C U80C | 0.38
C14U G16A U41C U48C | 0.19
C14U C34A C39A U60C | 0.14
C14A A15G U25G C27U U51C | 0.2
A13U U54A A57G | 1.22
A13U U41C G61C A75U U80A | 0.48
C14U U31A C32G U48C | 0.09
C14U A47C U72C U80A | 0.94
A13U U49A U78C | 0.85
C14U A15U C32U U67C | 0.08

Variant | self-cleavage
C14U A15G U41C U48C | 0.96
A13U U58A A65C U80C C81U | 0.14
C14A A45C C62A A64G A75G | 0.07
C14U U26C A35G U41C U60C U66C | 0.18
C14U C40A U41C U51C | 0.2
C14U C44U G46U A77G | 0.14
C14U U31A A56G | 0.63
C14U A28G A45G U78C C79A | 0.62
C14U U51A G70C | 0.27
C14A A20G U49G | 0.7
A15C A18G U25C U41A A77U | 0.64
C14A A20G U26C A45G A56U U66A | 0
C14U U31A U43C A45U U80C | 0.14
C14A U25C U72A U74C U80A | 0.06
A13U U41C U43C U48C A65G | 0.11
C14U U66C U67C | 0.23
C14A A20G C27A C38U | 0.22
C14U U26C A56G U69A U80C | 0.25
A13U U60A U80C | 0.99
C14A C17U U26C | 0.37
A15C A20U A45U U51A A57U A65G U67C | 0.04
A13U U43C U51C C71U | 0.18
C14U U26A G33A U48C | 0.13
